# Experimental data from PubChem BioAssay (NCATS).
# Inconclusive means that the source gave no clear call. Such entries were picked first, then a sample of the others. Potencies of inconclusive entries are left out as doubtful fits. Calls of active or inactive are those of the source. Calls come from the whole dose curve; as a rule, active = well fitted inhibition curve with a large enough effect in the signal ratio, with a control signal flat (not every such curve was filed as active); inconclusive = small, poorly fitted or top-dose-only effect, or effect the other way, or a change in a side signal; inactive = flat fitted curve, though single readings scatter; the % refers to the signal ratio.
# Target: Glucocorticoid receptor (Homo sapiens) (UniProt P04150)
# Assay: qHTS assay for small molecule antagonists of glucocorticoid receptor signaling (AID 588533)
# Conditions: HeLa MMTV-bla, GRE beta-lactamase ratio, antagonist mode, 18 h; activity change, negative = inhibition: at 76.8 µM (top of the series)
# Source text: NIH Chemical Genomics Center [NCGC] U.S. Environmental Protection Agency [EPA] National Institutes of Environmental Health Sciences [NIEHS] National Toxicology Program [NTP] NCGC Assay Overview The Glucocorticoid receptor (GR), a nuclear receptor subfamily member and its natural ligands includes […] etc. The GR is a validated drug target for inflammation. GR ligands such as dexamethasone are clinically available as anti-inflammatory drugs. Glucocorticoids implicate a role in carbohydrate, protein and lipid metabolisms and programmed cell death. They are also a component of many chemotherapy regimens for the treatment of leukemias, lymphomas, and myelomas because of their role in the induction of apoptosis.
# NCGC Assay Protocol Summary Using a beta-lactamase reporter-gene under control of glucocorticoid response element (GRE), a cell-based assay [CellSensor MMTV-bla HeLa cell line assay developed by Invitrogen] was used to measure GR ligands signaling. CellSensor MMTV-bla HeLa cells were used with assay medium containing 1% charcoal/dextran treated FBS, 0.1 mM NEAA, 1 mM sodium pyruvate and 25mM HEPES. The assay was performed in clear bottom black Greiner 1536-well plates. Library compounds were measured for their ability to inhibit the reporter gene activity. Compounds were screened in a titration series in 1536-well format. […] Data was normalized relative to Dexamethasone control (2 nM, 100%), and DMSO only wells (basal, 0%). Concentration-response titration points for each compound were fitted to the Hill equation yielding concentrations of half-maximal inhibition (IC50) and maximal response (efficacy) values. qHTS protocol for GR beta-lactamase assay in antagonist mode [Step] [Parameter] [Value] [Description] 1. Reagent; 5 uL; 1500 cells/well 2. Incubation; 37 C for 3-5 hrs 3. Compounds; 23 nL; 0.59 nM to 92 uM 4. […] Agonist (Stimulator); 1uL; Dexamethasone at 2 nM (final) concentration 6. Incubation; 37 C for 18 hrs 7. Detection reagent; 1 uL of CCF4-dye 8. Incubation; RT for 2 hrs 9. Detection; Fluorescence; Envision plate reader
# % is set by controls: 0 for no effect and ±100 for the full control effect; tags give direction and shape of the fitted curve.
Compound,"activity change, negative = inhibition",Potency
CC(C)OCC1CO1 (stereo not given),inconclusive: 4.41%,
O=C(O[C@@H](C(=O)O)[C@@H](OC(=O)c1ccccc1)C(=O)O)c1ccccc1,inactive: -2.88%,
O=S(c1ccc(Cl)cc1)c1cc(Cl)c(Cl)cc1Cl (stereo not given),,"inconclusive [activator, partial curve, poor fit]"
Cn1c(=O)[nH]c(=O)n(C2CCC(O)CC2)c1=O (stereo not given),inactive: 6.95%,
CCCCC/C=C/C=C/C=O,,inactive
CN(C)c1ccc(Cc2ccc(N(C)C)cc2)cc1,inconclusive: 34.2%,
Cc1ccc(C)c(O)c1,inconclusive: 14.5%,
CCCCC(CC)COC(C)=O (stereo not given),inactive: 1.26%,
CCN(CC)c1cccc(O)c1,,"inconclusive [activator, partial curve, poor fit]"
S=C([S-])NCCNC(=S)[S-].[Mn+2],,inactive
Cc1ccc(C)c([N+](=O)[O-])c1,inconclusive: -28.6%,
CCOC(=O)C(C)Oc1ccc(Oc2cnc3cc(Cl)ccc3n2)cc1 (stereo not given),inconclusive: -16.5%,
Cc1ccc(N)c([N+](=O)[O-])c1,inconclusive: 21.2%,
CC(C)(C)c1n[nH]c(=O)n(N)c1=O,inactive: 0.272%,
O=C(O)c1ccc(C(=O)O)c(C(=O)O)c1,inconclusive: -3.06%,
CCC(C)c1ccccc1O (stereo not given),inconclusive: 15.2%,
O=C(Cl)c1cc(Cl)cc(Cl)c1,inactive: -0.406%,
Nc1cccc([N+](=O)[O-])c1,inactive: -0.105%,
Cc1ccc2nc(-c3ccc(N)cc3)sc2c1S(=O)(=O)O,inconclusive: 13.6%,

Compound,"activity change, negative = inhibition",Potency
O=C(Nc1ccccc1)c1ccccc1O,inconclusive: 33.1%,
CC(=O)OCc1ccc2c(c1)OCO2,inactive: -26.7%,
CCCCCO,inconclusive: 18.8%,
O=C(c1ccccc1)c1ccc(O)c(O)c1O,inactive: -24.2%,
Cc1cccc(C)c1[N+](=O)[O-],inconclusive: -4.03%,"inconclusive [inhibitor, full curve, poor fit]"
CCCCCOC(=O)COc1cc(N2C(=O)C3=C(CCCC3)C2=O)c(F)cc1Cl,inactive: 23.8%,
COc1ccc(OC)c(OC)c1,inconclusive: -9.73%,
Cc1ccc(S(=O)(=O)N=C=O)cc1,inactive: 5.41%,
OCC(CBr)(CBr)CBr,inconclusive: 41.5%,
C[Si](C)(Cl)[Si](C)(C)Cl,inconclusive: -13.1%,
c1ccc2c(c1)c1cccc3ccc4cccc2c4c31,,inactive
CCCCCC1CCC(=O)O1 (stereo not given),inactive: -4.49%,
CCN(C(=O)N(CC)c1ccccc1)c1ccccc1,,"inconclusive [inhibitor, single point]"
C=Cc1ccc(C=C)cc1,inactive: 10.7%,
CCCCCCCC[Si](OCC)(OCC)OCC,inactive: -14.1%,
CCCCCCN,inconclusive: -31.4%,
O=C(O)c1cc(N=Nc2ccc([N+](=O)[O-])cc2)ccc1O,,active: 10 µM
CC(C)c1cccc(C(C)C)c1,inconclusive: -3.38%,
O=C=Nc1ccc(Cc2ccc(N=C=O)cc2)cc1,inactive: -5.62%,

# Same assay, conditions: HeLa MMTV-bla, GRE beta-lactamase ratio, antagonist mode, 18 h; at 76.8 µM (top of the series)
row,Compound,"activity change, negative = inhibition"
1,Cc1ccc(N)c([N+](=O)[O-])c1,inactive: 0.282%
